Among all 310,000 compounds or so, about 14,000 (4.5%) showed an effect of 50% or more. Effects have a minus sign here. The list shows a part of the results.
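Further: peak tail current of the secondary pulse compared with the same well before compound.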

In this test the target is human ether-à-go-go-related gene (hERG) potassium channel (human, UniProt Q12809). Description: primary screen, population patch clamp on CHO cells stably expressing hERG.
Chain of human ether-à-go-go-related gene (hERG) potassium channel (Q12809 whole entry, looked up): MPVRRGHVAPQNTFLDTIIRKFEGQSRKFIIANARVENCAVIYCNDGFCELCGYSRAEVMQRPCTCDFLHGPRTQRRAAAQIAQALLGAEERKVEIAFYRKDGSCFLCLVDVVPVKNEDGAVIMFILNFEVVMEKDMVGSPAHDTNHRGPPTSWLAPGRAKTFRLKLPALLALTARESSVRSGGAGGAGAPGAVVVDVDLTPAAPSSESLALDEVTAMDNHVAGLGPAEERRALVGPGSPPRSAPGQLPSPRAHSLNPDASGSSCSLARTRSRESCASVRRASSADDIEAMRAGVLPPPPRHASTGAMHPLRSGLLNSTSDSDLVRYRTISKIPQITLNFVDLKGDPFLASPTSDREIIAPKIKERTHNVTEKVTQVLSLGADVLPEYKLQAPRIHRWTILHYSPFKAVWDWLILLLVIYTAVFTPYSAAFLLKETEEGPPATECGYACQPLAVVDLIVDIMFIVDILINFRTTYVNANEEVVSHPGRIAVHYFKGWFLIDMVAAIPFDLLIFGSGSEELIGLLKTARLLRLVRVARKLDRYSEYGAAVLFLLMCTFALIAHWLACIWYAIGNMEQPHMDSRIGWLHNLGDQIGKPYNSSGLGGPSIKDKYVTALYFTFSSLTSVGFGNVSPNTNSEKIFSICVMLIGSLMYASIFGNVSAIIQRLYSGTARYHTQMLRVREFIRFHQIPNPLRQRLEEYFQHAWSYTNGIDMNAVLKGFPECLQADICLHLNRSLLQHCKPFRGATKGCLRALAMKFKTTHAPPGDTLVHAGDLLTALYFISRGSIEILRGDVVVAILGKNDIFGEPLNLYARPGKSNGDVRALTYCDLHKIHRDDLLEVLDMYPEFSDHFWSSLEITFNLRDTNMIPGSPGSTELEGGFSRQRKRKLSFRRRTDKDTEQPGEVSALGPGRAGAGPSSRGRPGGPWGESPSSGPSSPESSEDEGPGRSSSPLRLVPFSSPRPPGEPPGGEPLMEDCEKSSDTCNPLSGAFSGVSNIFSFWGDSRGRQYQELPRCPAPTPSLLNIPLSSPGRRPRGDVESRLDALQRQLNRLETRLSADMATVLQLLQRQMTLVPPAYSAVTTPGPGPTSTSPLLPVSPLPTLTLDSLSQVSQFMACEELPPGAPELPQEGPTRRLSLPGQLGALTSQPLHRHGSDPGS
Regarding `CC(=O)Nc1nc(CCC(C)C)cc2c1c(=O)oc1ccccc12`, the “hERG current change (%, negative = inhibition) at 10uM” value is given as 2.54%.

In the case of `COc1ccccc1Cn1nnc2c(=O)[nH]c(C3CCN(C(=O)c4ccc(C)cc4)CC3)nc21`, the “hERG current change (%, negative = inhibition) at 10uM” value is listed as -18.4%.

Turning to `CCOc1cc(CNCc2cc(OC)cc(OC)c2)ccc1OC.O=C(O)C(=O)O`, the “hERG current change (%, negative = inhibition) at 10uM” value is -10.8%.

Take `CCCNC(=O)OCCC12CC3CC(CC(C3)C1)C2`: the “hERG current change (%, negative = inhibition) at 10uM” value turned out to be 18%.

Turning to `CN=c1scc(C)n1/N=C/c1ccc(O)cc1O`, the “hERG current change (%, negative = inhibition) at 10uM” value is reported as -1.8%.

As to `O=C(CSc1ncn[nH]1)N1CCOCC1`, the “hERG current change (%, negative = inhibition) at 10uM” value is 32.2%.

As to `Cc1nn(C(C)(C)C)c(NC(=O)c2ccc(Cl)cc2Cl)c1Br`, the “hERG current change (%, negative = inhibition) at 10uM” value is on record as 7.67%.

In the case of `Clc1cccc(CNc2nnnn2-c2ccccc2)c1`, the “hERG current change (%, negative = inhibition) at 10uM” value is on record as 22.5%.

With `C=C(C)CSc1nc(N)c(C#N)c(-c2ccc(C)cc2)c1C#N`, the “hERG current change (%, negative = inhibition) at 10uM” value was 1.76%.

In the case of `CC1CCN(C(=O)CSc2nnc(CNC(=O)c3ccc(S(=O)(=O)N(C)C)cc3)o2)CC1`, the “hERG current change (%, negative = inhibition) at 10uM” value stood at 18.7%.

Regarding `O=C(CSc1nnc(-c2ccc(Cl)s2)o1)N1CCc2ccccc21`, the “hERG current change (%, negative = inhibition) at 10uM” value is on record as -13.7%.

Regarding `Cn1c(Cn2c(=O)sc3ccccc32)nnc1SCC(=O)N1CCc2ccccc21`, the “hERG current change (%, negative = inhibition) at 10uM” value is recorded as -9.34%.

Regarding `COc1ccc(C(=O)NNC(=O)C(=O)NC(C)c2ccccc2)cc1OC` (stereo not shown), the “hERG current change (%, negative = inhibition) at 10uM” value turned out to be 13.7%.

Turning to `Cc1c(-c2ccccc2)c(P(=O)(N2CCOCC2)N2CCOCC2)c2ccccn12`, the “hERG current change (%, negative = inhibition) at 10uM” value is reported as -21.6%.

Regarding `O=C(NNC(=O)c1cc(-c2ccccc2)nc2ccccc12)Nc1cccc(Cl)c1`, the “hERG current change (%, negative = inhibition) at 10uM” value is given as 0.557%.

Consider `COc1ccc(CCNC(=O)C2CCCN(Cc3nc(-c4cccc(Cl)c4)oc3C)C2)cc1OC` (stereo not shown), for which the “hERG current change (%, negative = inhibition) at 10uM” value is recorded as -84.1%.

For the compound `Cc1oc2c(c1C(=O)N1CCC(C)CC1)C(=O)c1ccccc1C2=O`, the “hERG current change (%, negative = inhibition) at 10uM” value is -9.11%.

Regarding `C[C@@H]1CCC(=O)N(CC[C@H](Oc2ccccc2)c2ccccc2)CC1`, the “hERG current change (%, negative = inhibition) at 10uM” value was -10.2%.

In the case of `COc1ccc(/C=N/Nc2nc(-c3ccc(Cl)cc3)cc(C(F)(F)F)n2)c(OC)c1`, the “hERG current change (%, negative = inhibition) at 10uM” value stood at 2.62%.

Regarding `COc1ccccc1-c1cc(C(=O)Nc2cc(C)on2)no1`, the “hERG current change (%, negative = inhibition) at 10uM” value is reported as -2.52%.

Regarding `CC(C)NC(=O)Cn1cc(C(=O)C2CC2)c2ccccc21`, the “hERG current change (%, negative = inhibition) at 10uM” value worked out at 26.5%.

As to `CC1CCN(C(=O)Cn2c3ccccc3c3nc4n(c(=O)c32)CCS4)CC1`, the “hERG current change (%, negative = inhibition) at 10uM” value is on record as 6.31%.

With `O=C1CN(C(=O)COC(=O)c2ccccc2Br)c2ccccc2N1`, the “hERG current change (%, negative = inhibition) at 10uM” value was 0.233%.

Take `CCOC(=O)c1ccc(N2C(=O)C(CC(N)=O)N(NC(=O)c3cccc(F)c3)C2=S)cc1` (stereo not shown): the “hERG current change (%, negative = inhibition) at 10uM” value is 11.1%.

With `O=C(N/N=C/c1c(O)n(C2CC2)c(=S)[nH]c1=O)c1ccccc1Cl`, the “hERG current change (%, negative = inhibition) at 10uM” value is listed as 13%.

On to `O=C(CNC(=O)c1ccc2c(c1)S(=O)(=O)N=C1CCCCCN12)Nc1ccc(F)c(F)c1`, for which the “hERG current change (%, negative = inhibition) at 10uM” value was determined as 4.03%.

As for `CS(=O)(=O)N1N=C(c2ccco2)CC1c1ccc(Cl)cc1Cl` (stereo not shown), the “hERG current change (%, negative = inhibition) at 10uM” value is given as -11.2%.

Turning to `Cc1ccc(Oc2ccccc2NC(=O)CSCC(=O)Nc2cc(C)on2)cc1`, the “hERG current change (%, negative = inhibition) at 10uM” value is on record as -19.3%.

Turning to `COCCNC(=O)c1onc(CSc2cc(C)cc(C)c2)c1C(=O)O`, the “hERG current change (%, negative = inhibition) at 10uM” value was determined as 18.9%.

As for `O=[N+]([O-])c1ccc(-c2ccc(S(=O)(=O)NCCN3CCCC3)cc2)cc1`, the “hERG current change (%, negative = inhibition) at 10uM” value is -77.7%.

In the case of `CN1CCN(CC#CCn2c3ccccc3c3ccccc32)CC1`, the “hERG current change (%, negative = inhibition) at 10uM” value is listed as -43.2%.

Regarding `COc1cccc(-c2cc(C(=O)N3CCc4ccccc4C3)no2)c1`, the “hERG current change (%, negative = inhibition) at 10uM” value is -27%.

In the case of `Cc1nc2ccccc2c(=O)n1NC(=O)Cc1ccc(Br)cc1`, the “hERG current change (%, negative = inhibition) at 10uM” value was -10.2%.

As to `Cc1nnc(SCC(=O)Nc2cccc([N+](=O)[O-])c2)n1CC1CCCO1` (stereo not shown), the “hERG current change (%, negative = inhibition) at 10uM” value is listed as -13%.

Regarding `CN(CCOCCOc1ccc(Cl)cc1Br)Cc1ccccc1`, the “hERG current change (%, negative = inhibition) at 10uM” value is on record as -46.1%.

On to `CCOC(=O)N1CCN(C(=O)C2CCN(S(=O)(=O)N(CC)CC)CC2)CC1`, for which the “hERG current change (%, negative = inhibition) at 10uM” value was -5.23%.

For `Cc1ccc(Nc2ccc(N3CCN(c4ccc([N+](=O)[O-])cc4)CC3)nn2)cc1`, the “hERG current change (%, negative = inhibition) at 10uM” value worked out at 9.07%.

Take `COc1ccc(C(=O)OCCN2CCN(C3=NS(=O)(=O)c4ccccc43)CC2)cc1OC`: the “hERG current change (%, negative = inhibition) at 10uM” value is recorded as -32.9%.

Turning to `O=C(CN1C(=O)NC2(CCCC2)C1=O)Nc1cc(Cl)ccc1N1CCCC1`, the “hERG current change (%, negative = inhibition) at 10uM” value is recorded as -2.48%.

`CCn1ccnc1C(O)c1cccc(OC)c1` (stereo not shown): the “hERG current change (%, negative = inhibition) at 10uM” value amounted to 9.96%.

Take `O=C1CCCC2=C1C(O)(C(F)(F)F)C(=O)N2Cc1ccccc1` (stereo not shown): the “hERG current change (%, negative = inhibition) at 10uM” value is listed as -10.1%.

With `CCCCN1Cc2c(nc3cc(-c4ccccc4)[nH]n3c2=O)C1=O`, the “hERG current change (%, negative = inhibition) at 10uM” value stood at 6.51%.

As for `CCc1ccc(OCC(=O)Nc2ccncc2)c(Br)c1`, the “hERG current change (%, negative = inhibition) at 10uM” value is -31.2%.

(Values after paper PMC4336329 (PLoS ONE, 2015).)
